Source: patent US6723699B1, “Treating disorders by application of insulin-like growth factors and analogs” (Cephalon, Inc., priority 1989, dated 2004)
One block for each substance: values may come before it.

Assays:
septal cultures = assay: Number of AChE positive cells in rat septal cultures; assay type: cell-based; conditions: 2 nM NGF; same conditions
Description: (§1) Dissociated cell cultures of the septal region of day 17 embryonic rats were prepared by standard techniques known to those skilled in the art, using enzymatic (Dispase, Collaborative Research) dissociation of tissue. Cells were seeded (plated) at 6×10^5 cells/cm^2 in poly-1-ornithine-laminin coated plastic tissue culture wells, and cultured in serum-free N2 medium (Bottenstein et al., 1978) for 5 days without feeding. Control (uninduced) cultures received no added growth factors; induced cultures received the concentrations of IGF-I and NGF indicated in FIGS. 9 and 10 at the time of plating. NGF is commercially available. ChAT was assayed by the method described in McManaman, et al. Dev. Biol. 125:311-320 (1988). AChE staining was performed according to the method of Hartikka and Hefti, J. Neuroscience 8:2967-2985 (1988).
We have shown that under specific culture conditions (4×10^5 cells/cm^2 in the presence of medium containing 10% bovine calf serum), IGF-I increased the number of AChE positive cells by 3-4 fold over control, growth factor-free cultures, FIG. 12.

[1] = test system: cultured rat septal cells; assay: ChAT activity in cultured rat septal cells; assay type: cell-based
Description: The effect of simultaneous administration of IGF-I and NGF on ChAT activity was assayed in cultured septal neurons. ChAT is the initial enzyme in the synthesis of the neurotransmitter, acetylcholine, and is a specific biochemical marker for cholinergic neurons. Assay of this enzyme may be used as an indication of the effects of IGF (and other factors) on the survival of cholinergic neurons and/or regulation of this enzyme. […] In FIG. 9 open squares represent IGF-I, diamonds indicate IGF-I+2 nM NGF, open circles indicate 2 nM NGF, and the horizontal line at 403 DPM represents uninduced cells. A similar additive effect was seen when saturating concentrations of IGF-I were combined with saturating or sub-maximal concentrations of NGF, as shown in FIG. 10. In FIG. 10 open squares indicate NGF, diamonds indicate NGF+25 nM IGF-I, open circles represent 25 nM IGF-I, and the horizontal line at 554 DPM represents uninduced cells.
Cultured rat septal cell experiments were performed generally as described in Hartikku and Hefti, J. Neuroscience, 8:2967-2985 […], Hayashi and Patel, Dev. Brain Res., 36:109-120 (1987), and as follows.
as §1

IGF-I receptor = target: T1, IGF-I receptor (Rattus norvegicus, UniProt P24062); assay: 125I-[Threonine59]IGF-I displacement (IGF-I receptor competition) assay, rat brain homogenate; assay type: binding; conditions: for displacement of 125I-[Threonine59]IGF-I (in words): rat brain homogenate
T1 construct: Brain tissue containing the cerebral cortex and cerebellum was dissected from adult Sprague-Dawley rats; from tissue; host or cells: adult Sprague-Dawley rat brain (cerebral cortex and cerebellum), homogenate pellet
Description: Brain tissue containing the cerebral cortex and cerebellum was dissected from adult Sprague-Dawley rats (Hilltop Lab Animals, Inc. Scottsdale, Pa.) and homogenized at low power for 5 minutes in a Brinkmann Polytron homogenizer (Westbury, N.Y.) containing 50 volumes of ice-cold buffer consisting of 10 mM HEPES, 0.5% BSA, 0.0125% NEM, 0.025% bacitracin, and 100 KIU/ml aprotinin, pH 7.6 (Bohannon et al., Endocrinology 119:943-945 (1986). Following homogenization, the tissue was collected after centrifugation at 7800×g for 20 minutes and resuspended in 10 volumes of assay buffer. Tissue (50 μl), 100 μl ^125I-[Threonine^59]IGF-I (20 pM), and 50 μl of buffer or peptides of varying concentration were added to 96-well plates and incubated on ice for 3 hours. After the incubation period, the tissue was collected on Whatman GF/C filters that had been pre-soaked in 0.01% polyethylenimine and washed four times with ice-cold assay buffer using a Brandel cell harvester (Gaithersburg, Md.). The filters were removed and the bound ^125I-[Threonine 59]IGF-I was measured using a Beckman Model 5500B Gamma Counter.

[2] = test system: 125I-[Threonine59]IGF-I binding to brain tissue sections; assay: 125I-[Threonine59]IGF-I binding displacement on rat brain tissue sections
Description: Brains were removed intact from adult Sprague-Dawley rats, frozen on powdered dry ice, and cut into 20 μm sections (at the level of the cerebellum and brain stem) which were
thaw-mounted onto gelatin-coated glass microscope slides (Herkenham and Pert, J. Neurosci. 2:1129-1149 (1982)). Using a modification of the method of Bohannon et al. (1986), the tissue sections were covered with 250 μl of HEPES assay buffer (see Example 1) containing 0.01 nM ^125I-[Threonine^59]IGF-I alone or in combination with unlabeled IGF-I, IGF-II, or synthetic peptide fragments thereof. The sections were incubated at 4° C. for 24 hours and then rinsed in three 1-minute changes (200 ml each) of ice-cold HEPES assay buffer. The tissue sections were then wiped off the slides with filter paper, and the tissue-bound radioactivity was measured in a Beckman Model 5500B Gamma Counter.

[3] = test system: 14-day embryonic rat spinal cord neurons; assay: Choline acetyltransferase activity in dissociated embryonic rat spinal cord neuron cultures; assay type: cell-based; conditions: 48 hr incubation
Description: The activity of IGF-I, IGF-II, or synthetic peptide derivatives of these molecules was assayed on dissociated cultures of 14-day embryonic rat spinal cord neurons. The spinal cord neurons were obtained from trypsin-dissociated spinal cords, plated, incubated with peptides, and subsequently (48 hr later) assayed for choline acetyltransferase activity as described by […] et al., Dev. Biol. 125:311-320 (1988).

[4] = test system: brain ornithine decarboxylase; assay: Induction of brain ornithine decarboxylase after intracerebral injection, 4 day old rats; assay type: in vivo, rat; conditions: 6 hours
Description: The in vivo activity of IGF-I, IGF-II or synthetic peptide derivatives of these molecules was tested using a biochemical marker for CNS neurotrophic activity, the induction of brain ornithine decarboxylase. The induction (i.e. increased activity) of ornithine decarboxylase has been reported to be a general marker for the actions of a variety of trophic factors. (Schwartz et al., Dev. Brain Res. 1:403-413 (1981); Kanje et al., Brain Res. 381:24-28 (1986); Russell et al., Life Sci. 19:1297-1306 (1976); MacDonnell et al. Proc. Natl. Acad. Sci. USA 74, 4681-4684 (1977); […] et al. Proc. Natl. Acad. Sci. USA 82, 4365-4368 (1985)). Sprague-Dawley rats, 4 days old, were injected intracerebrally (in the area of the lateral ventricle) with 5 μl of 0.1 M phosphate-buffered saline (PBS) containing IGF-I, IGF-II or a synthetic peptide derivative (1.25-2.5 μg dose, with 6 animals per treatment group). After 6 hours, the brains were removed, and ornithine decarboxylase was assayed essentially as described by Lewis et al., Proc. Natl. Acad. Sci. USA 75:1021-1023 (1978).

[5] = test system: 14.5 day embryonic rat spinal cord neurons; assay: Choline acetyltransferase activity in 14.5 day embryonic rat spinal cord neurons, serum-free; assay type: cell-based
Description: The activity of IGF-I, IGF-II and IGF-III was assayed on dissociated cultures of 14.5 day embryonic rat spinal cord neurons. The spinal cords were removed from embryos and dissociated in 0.05% trypsin in Dulbecco's Phosphate Buffered Saline (DPBS). Dissociated cells were seeded onto poly-1-ornithine substrates in 96 well microtiter plates at 2×10^5 cells/well in 200 μl of serum-free and insulin-free N2 medium (Bottenstein and Sato, 1979 supra) containing 0.05% bovine serum albumin. After a 48 hr incubation at 37° C. in a humidified atmosphere of 5% CO2, 95% air, cultures were assayed for choline acetyltransferase activity according to a modification (McMananman et al., Dev. Bio., 25:311-320 (1988)) of the technique described by Fonnum (Fonnum, J. Neurochem. 24:405-409 (1975)).

motoneurons = assay: Motoneuron survival in ovo (developmentally regulated motoneuron death); assay type: in vivo, chick; conditions: 5 μg/egg daily onto chorioallantoic membrane, E6 to E9, counted E10
From the text: In the spinal cord, as well as in other regions of the nervous system, neurons are over-produced during development, and undergo a process of naturally occurring cell death prior to […] (reviewed in Oppenheim, R. W. 1991, Annu Rev. Neurosci. 14:453-501). During this period, approximately 50% of the motoneurons degenerate and die. Certain neurotrophic agents applied exogenously during this period prevent or retard this form of neuronal death (e.g., partially purified muscle extracts and ciliary neurotrophic factor reduce motor neuron death in chick embryos (McManaman et al., 1990, Neuron 4:891-898; Oppenheim et al. 1991, Science 25:1616-1617).
The IGFs were administered daily onto chorioallantoic membrane (5 μg/egg in a volume of 50 μl) from embryonic day E6 to E9 through a small window cut into the shell of the egg. Control embryos received an equal volume of vehicle (phosphate buffered saline) alone on E10, the embryos were removed, sacrificed and the spinal cords sectioned. Motoneurons (identified morphologically in silver-stained sections) were counted in serial sections from both treated and control embryos. […] The differences between effects produced by the different IGFs used were not statistically significant (Student t test […]).

Substance: NGF: Nerve Growth Factor, commercially available transmitter enhancer
- number of AChE positive cells (in words) (septal cultures): did not affect the number of AChE positive cells
- ChAT activity % increase over control ([1]; single growth factor 0.02 nM): 56%
- ChAT activity % increase over control ([1]; single growth factor 0.2 nM): 36%
- ChAT activity % increase over control ([1]; single growth factor 2.0 nM, 5 days): 44%

- PERCENT MAX. BOUND (IGF-I receptor; peptide 1 mM): 92%
- PERCENT MAX. BOUND ([2]; peptide 1 mM): 76%
- PERCENT MAX. BOUND ([2]; peptide .10 mM): 82%
- displacement of 125I-[Threonine59]IGF-I binding (in words) ([2]; rat brain sections): displaced
Substance: SRVSR RSR (SRVSRRSR) [IGF-II(33-40)]
- choline acetyltransferase activity (in words) [3]: dose-dependent increase in choline acetyltransferase activity

- PERCENT MAX. BOUND (IGF-I receptor; peptide 50 μM): 99%
- PERCENT MAX. BOUND (IGF-I receptor; peptide 100 μM): 44%
- displacement of 125I-[Threonine59]IGF-I (in words) (IGF-I receptor): active in displacing
Substance: YFNKP TGYGS SSRRA PQT (YFNKPTGYGSSSRRAPQT) [IGF-I(24-41)]
- brain ornithine decarboxylase activity (in words) [4]: increased brain ornithine decarboxylase activity
- choline acetyltransferase activity (in words) [3]: dose-dependent increase in choline acetyltransferase activity

Substance: TLCGAEL VDALQFVCGDRGFYFNKPTGYGSSS-RRAPQTGIVDECCFRSCDLRRLEMYCAPLKPAKSA [IGF-III]
- relative potency in increasing ChAT (in words) ([5]; serum containing medium): greater potency in increasing CHAT compared with IGF-I
- choline acetyltransferase activity (in words) ([5]; serum-free and insulin-free N2 medium, 48 hr): substantial, dose-dependent increase in choline acetyltransferase activity
- PERCENT MAX. BOUND (IGF-I receptor; peptide 40 nM): 17.6%
- displacement of 125I-[Threonine59]IGF-I (in words) (IGF-I receptor): potent displacers
- prevention of developmentally regulated motoneuron death (in words) (motoneurons): partially prevented developmentally regulated motoneuron death
- choline acetyltransferase activity (in words) [3]: active in the spinal cord assay
